These results are taken from ChEMBL document CHEMBL4888484, “Replenishing the malaria drug discovery pipeline: Screening and hit evaluation of the MMV Hit Generation Library 1 (HGL1) against asexual blood stage Plasmodium falciparum ,using a nano luciferase reporter read-out” (2022).

The % Inhibition is the change of the read-out against control, counted positive when it falls.

About 540 (0.36%) of roughly 150,000 compounds showed an effect of 50% or more. This is one part of the list.

For this assay, the system named is Plasmodium falciparum. The assay is described as follows: Primary screen in NF54 nanoGlo assay, in single point, at 2uM, 72h; a lower Z score goes with more inhibition. It is filed as functional, Erythrocyte. Conditions: timepoint 72 hour.
For `CCOCC(=O)N[C@H]1CN(CCS(C)(=O)=O)C[C@@H]1c1ccccc1`, the “% Inhibition” value was -11% and the Z score is given as 1.96.

Turning to `Cc1noc(-c2cccn3c(CNC(=O)[C@H](C)n4cccn4)nnc23)n1`, the “% Inhibition” value is given as -18% and the Z score is 2.27.

`CCN(Cc1nc2ccccc2c(=O)[nH]1)C(=O)C1CCC1`: the “% Inhibition” value came out at 1% and the Z score is -0.21.

With `Cc1ccc(-n2nc(-c3ccccc3Cl)c(Cl)c2-c2ccccc2Cl)cc1Cl`, the “% Inhibition” value is 31% and the Z score is on record as -3.48.

Turning to `CN(C)c1nc(N[C@H]2COc3ccccc32)ncc1F`, the “% Inhibition” value is reported as 3% and the Z score is reported as -0.47.

For the molecule `COCCN(Cc1ccoc1)S(=O)(=O)c1cc(F)ccc1OC`, the “% Inhibition” value is on record as -8% and the Z score is reported as 1.

In the case of `O=C1CC2(CCN(c3ncnc4[nH]ccc34)CC2)CN1`, the “% Inhibition” value is recorded as -3% and the Z score is on record as 0.37.

For `O=C(N1CC2CCCCC2C1)C1(c2ccccc2)CCOCC1` (centres undefined), the “% Inhibition” value is -2% and the Z score worked out at 0.24.

Regarding `Cc1c(C(=O)O)nn(C(C)C)c1Oc1ccc(NC(=O)CC(C)C)cc1S(=O)(=O)NC(C)C`, the “% Inhibition” value is given as 11% and the Z score is recorded as -1.35.

Regarding `O=S(=O)(C1CC1)N1CCN(Cc2cccc3cc[nH]c23)CC1`, the “% Inhibition” value is on record as -2% and the Z score worked out at 0.3.

Take `CN(C)C(=O)OCCn1cc(Br)cn1`: the “% Inhibition” value is -10% and the Z score stood at 1.36.

Regarding `Cc1cc(C#N)ccc1S(=O)(=O)Nc1[nH]nc(C)c1-c1ccc2c(c1)OCCO2`, the “% Inhibition” value was 6% and the Z score is reported as -1.06.

As to `C[C@H](NC(=O)N(CC1CC1)CC1CC1)c1nc(C2CCCCC2)no1`, the “% Inhibition” value is 4% and the Z score is listed as -0.48.

Take `Cc1nc(N(C)C)ncc1C(=O)N(C)CCCc1nccn1C`: the “% Inhibition” value was -1% and the Z score stood at 0.13.

As for `CCn1c(N2CCC[C@H](C(=O)NCc3cccc(C)c3)C2)cc(=O)n(C)c1=O`, the “% Inhibition” value is recorded as -5% and the Z score worked out at 0.84.

For the molecule `CC[C@@H](CC#N)NCc1cn(C(C)(C)C)nn1`, the “% Inhibition” value is reported as -8% and the Z score came to 1.24.

As for `NC(=O)[C@H]1CCN(C(=O)c2cc3c(s2)CCC3)C1`, the “% Inhibition” value is listed as -2% and the Z score stood at 0.37.

Regarding `CC(N)C1CCCCN1C(=O)c1ccc2sccc2c1` (centres undefined), the “% Inhibition” value is -5% and the Z score turned out to be 0.47.

Turning to `Cc1ncccc1C(=O)N(CCN1CCOCC1)C1CCOCC1`, the “% Inhibition” value is -7% and the Z score was found to be 1.13.

`Cc1cccc(O[C@H]2COCCN(C(=O)COc3ccccc3)C2)n1`: the “% Inhibition” value is 32% and the Z score is given as -3.6.

Turning to `CCCCS(=O)(=O)NC[C@H](O)c1cccc(Br)c1`, the “% Inhibition” value was -3% and the Z score is recorded as 0.45.

In the case of `C=C(C)CN(CC)C(=O)NCC1CCOC1c1ccccc1` (centres undefined), the “% Inhibition” value is on record as 0% and the Z score is on record as 0.03.

As for `CCN1CCC(CC(=O)N(C)Cc2ccc3c(c2)CN(C)C3)CC1`, the “% Inhibition” value came to 1% and the Z score is given as -0.1.

For `Cc1ccc2oc(CN(Cc3cc(F)ccc3F)C(=O)c3ccc(-c4ccccc4)cc3)nc2c1`, the “% Inhibition” value is 7% and the Z score is listed as -1.1.

For `Cc1cc(-c2nc(-c3cccs3)no2)on1`, the “% Inhibition” value was found to be 7% and the Z score was -1.28.

Turning to `Cc1ccnc(N2N=C(CC3CC3)CC2=O)c1`, the “% Inhibition” value stood at 1% and the Z score is -0.26.

As for `CCOc1ccc(CN2C(=O)CC[C@@]2(C)C(=O)NC2CCCC2)cc1`, the “% Inhibition” value is -13% and the Z score is 1.49.

Regarding `CC1(CNC(=O)NCCCCn2ccnc2)CCCC1`, the “% Inhibition” value is -6% and the Z score is given as 0.8.

As for `CNC(=O)c1ccc(N2CCC[C@H](c3nc(C)no3)C2)nn1`, the “% Inhibition” value was found to be 2% and the Z score is -0.35.

Take `Nc1nnc(CCNC(=O)CCC(F)(F)F)s1`: the “% Inhibition” value was -20% and the Z score is 1.96.

For the molecule `C[C@@H](C1CC1)N(C)C(=O)c1cc(Br)c2c(c1)OCCO2`, the “% Inhibition” value is listed as -10% and the Z score turned out to be 1.3.

With `Cc1cc(OC2CN(S(=O)(=O)C3CC3)C2)cc(=O)n1C`, the “% Inhibition” value is listed as -5% and the Z score came out at 0.59.

Consider `O=C(c1cnc2cnccc2c1)N1CCOCC2(CC2)C1`, for which the “% Inhibition” value is -19% and the Z score came to 2.17.

Regarding `CC[C@@H](CC#N)OC(=O)c1scnc1C`, the “% Inhibition” value came to 0% and the Z score was -0.02.

Turning to `O=C(NCC1(O)CCCCC1)[C@H]1CCC(=O)N(C2CCCCCC2)C1`, the “% Inhibition” value turned out to be 9% and the Z score is recorded as -1.08.

Regarding `Cc1cccc(CN2CCC3(CCO3)CC2)c1`, the “% Inhibition” value was determined as 11% and the Z score was -1.42.

For `Cc1c(C(=O)Nc2cc(-c3cccnc3)n[nH]2)cnn1C`, the “% Inhibition” value is given as -7% and the Z score was 0.71.

In the case of `O=C(Nc1ccccc1)c1ccc2cc[nH]c2n1`, the “% Inhibition” value is listed as -11% and the Z score amounted to 1.97.

In the case of `CCc1ccc(C(=O)N[C@H]2CCc3n[nH]c(=O)cc3C2)cc1`, the “% Inhibition” value is -18% and the Z score came out at 3.06.

For the molecule `CN(C(=O)c1cc(S(C)(=O)=O)ccc1Cl)[C@H]1CCCc2cccnc21`, the “% Inhibition” value is reported as -7% and the Z score was found to be 1.12.

As to `CCn1cnnc1CN(C)C(=O)COC[C@H]1CCCCO1`, the “% Inhibition” value is given as 5% and the Z score is reported as -0.9.

With `COCc1ccc(C2CCCN2CC2CCS(=O)(=O)C2)o1` (centres undefined), the “% Inhibition” value is 5% and the Z score is recorded as -0.57.

On to `CC[C@@H](CO)NC(=O)Nc1sc(-c2ccccc2)nc1C`, for which the “% Inhibition” value is given as -14% and the Z score is 1.63.

For `O=C(Nc1ccc(NC(=O)N2CCC(C(=O)NCC3CC3)CC2)cc1)NC1CCCC1`, the “% Inhibition” value was -16% and the Z score is listed as 2.11.

`O=C1CC2(CCN(S(=O)(=O)N3CCc4ccccc4C3)CC2)CN1`: the “% Inhibition” value is on record as -8% and the Z score is reported as 1.37.

As to `Cn1c(=O)c2c(nc(N3CCOCC3)n2CCCOc2ccccc2)n(C)c1=O`, the “% Inhibition” value was -6% and the Z score is recorded as 0.83.

As for `CN(C)c1ncc(NS(=O)(=O)CCCC(F)(F)F)cn1`, the “% Inhibition” value is -1% and the Z score is recorded as 0.15.

For `O=C(NC[C@H]1CCCOC1)Nc1cccc(-n2ccnn2)c1`, the “% Inhibition” value is -3% and the Z score is recorded as 0.59.

For the molecule `Cc1nccc(NC2CCC3(CC2)OCCO3)n1`, the “% Inhibition” value was -5% and the Z score is 0.55.

For the molecule `CCc1nc(O)c2sc(=S)n(-c3ccccc3)c2n1`, the “% Inhibition” value is 31% and the Z score is on record as -3.45.

Take `COc1ccc(-c2nn3c(c2C)NC(=O)C[C@H]3C(=O)Nc2cc(F)c(F)c(F)c2)cc1`: the “% Inhibition” value is recorded as -5% and the Z score was determined as 0.61.

Regarding `Cc1csc(C(C)(C)NC(=O)Nc2cc([C@H]3CCCOC3)nn2C)n1`, the “% Inhibition” value came out at 0% and the Z score is 0.04.

With `Cc1cc2ccccc2c(N2CCC(c3noc(C(C)C)n3)CC2)n1`, the “% Inhibition” value turned out to be 1% and the Z score is listed as -0.25.

For the molecule `CS(=O)(=O)c1ccc(O[C@@H]2CNCCOC2)cc1`, the “% Inhibition” value stood at 1% and the Z score is -0.19.

With `COCc1cc(CN(C)C(=O)c2cnn(Cc3ccccc3)c2)n[nH]1`, the “% Inhibition” value is recorded as -5% and the Z score is reported as 0.64.

As for `Cn1cc(Oc2ccccc2C(=O)Nc2cccnc2O)cn1`, the “% Inhibition” value is listed as 30% and the Z score is reported as -0.47.

For `c1coc(CCc2nc(C3(c4ccncc4)CCC3)no2)c1`, the “% Inhibition” value is given as -9% and the Z score worked out at 1.14.
